Experimental data: PubChem BioAssay AID602310 (National Center for Advancing Translational Sciences (NCATS), 2012)
“And” between values parts separate entries of the source, which are not always exact repeats. Equal entries are not always repeated. About 310 (0.076%) of roughly 410,000 compounds were called active. The inconclusive results got no clear call from the source; some entries with a clear call stand among them for comparison. Calls come from the whole dose curve; as a rule, active = well fitted curve in the direction sought with a large enough effect; inconclusive = small, poorly fitted or top-dose-only effect; inactive = flat fitted curve, though single readings scatter. Potencies beside an inconclusive call are fits to weak or partial responses and may not hold up.
% is set by controls: 0 for no effect and ±100 for the full control effect; potency is the fitted concentration of half-maximal effect; tags give direction and shape of the fitted curve.
Note: nearly all actives have a fitted effect of over 60% in size.
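Throughout, for activity, negative = active: hits raise eYFP signal because A3G escapes Vif-driven loss.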

What follows are molecules tested against DNA dC->dU-editing enzyme APOBEC-3G (Homo sapiens) (UniProt Q9HC16) (assay: qHTS for Inhibitors of Vif-A3G Interactions: qHTS). Conditions: HeLa A3G-eYFP + Vif (tagged APOBEC3G with the HIV-1 protein that degrades it), YFP fluorescence, overnight; series mostly up to 46.1 µM; activity, negative = active: at the top concentration.
Chain of UniProt Q9HC16 (Q9HC16 whole entry, looked up): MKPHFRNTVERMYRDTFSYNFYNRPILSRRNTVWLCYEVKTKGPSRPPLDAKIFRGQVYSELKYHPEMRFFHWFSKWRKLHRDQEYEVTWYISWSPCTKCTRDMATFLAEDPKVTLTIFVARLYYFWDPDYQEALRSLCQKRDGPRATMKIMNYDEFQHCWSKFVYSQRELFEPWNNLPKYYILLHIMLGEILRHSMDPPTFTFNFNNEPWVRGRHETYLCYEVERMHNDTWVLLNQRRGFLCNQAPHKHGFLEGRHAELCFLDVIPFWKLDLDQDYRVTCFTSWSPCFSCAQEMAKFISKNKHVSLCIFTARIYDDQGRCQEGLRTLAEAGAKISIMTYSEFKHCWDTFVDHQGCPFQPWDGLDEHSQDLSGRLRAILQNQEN
Procedure, shortened: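 HeLa cells stably expressing Vif and C-terminally eYFP-tagged A3G, seeded overnight at 37 deg C, then exposed to compound by pintool overnight at 37 deg C. Rise in yellow fluorescence (Ex 488/Em 500-530, Acumen) marks blocked Vif-driven A3G degradation.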
O=C(CF)N(O)c1ccc(C=Cc2ccccc2)cc1 was tested, and the “activity, negative = active” value was inactive: -1.52%. CCC(C)N=Cc1c(O)n(-c2ccccc2)c(=O)[nH]c1=O (stereo unspecified) was tested, and the “activity, negative = active” value was inactive: -0.867%. With C[C@]12CCC(=O)C=C1CC[C@@H]1C2[C@H](O)C[C@]2(C)C(=O)CCC12 (stereo partly specified) the “activity, negative = active” value was inactive: -0.55%. In the case of Cc1cccc(-n2c(C)nc3cc(C(=O)N4CCC5(CC4)OCCO5)ccc32)c1, the Potency was inconclusive: 35.5 µM [inhibitor, single point]. For C=CCN1C(=O)/C(=C/c2cccs2)C(=O)NC1=S, the “activity, negative = active” value was inactive: -23.5%. For CCn1c(O)c(/C=N/N2CCOCC2)c(=O)n(CC)c1=S, the Potency was inconclusive: 3.55 µM [inhibitor, full curve, poor fit]. With COc1ccc(C(O)(c2ccccc2)c2ccncc2)cc1 (stereo unspecified) the Potency was inconclusive: 35.5 µM [inhibitor, single point]. With CCOc1ccc(N2C(=O)/C(=C\c3cccs3)C(=O)NC2=S)cc1 the Potency was inconclusive: 20 µM [inhibitor, partial curve, poor fit]. In the case of COc1ccc(NC(=O)CSc2nc(-c3cccs3)cc(C(F)(F)F)n2)cc1Cl, the Potency was inconclusive: 3.98 µM [inhibitor, full curve]. In the case of CSC1=NP(=S)(SC)N2CCCC2=C1C#N (stereo unspecified), the “activity, negative = active” value was inactive: 4.65%. With NC12CN3CN(CN(C3)C1)C2 (tested in a mixture with another compound) the “activity, negative = active” value was inactive: 2.5%. With CCOC(=O)c1c(-n2c(C)cc(C=C3C(=O)NC(=O)NC3=O)c2C)sc2c1CCCC2 the “activity, negative = active” value was inactive: 1.35%. Nc1ccc2c3c(cccc13)CC2 was tested, and the Potency was inconclusive: 3.55 µM [inhibitor, single point]. Cc1cccn2c(=O)c3cc(C(=O)N4CCC5(CC4)OCCO5)n(C)c3nc12 was tested, and the Potency was inconclusive: 2.51 µM [inhibitor, full curve, poor fit]. O=c1c(C=NCCN2CCNCC2)c(O)n(C2CCCCC2)c(=O)n1C1CCCCC1 was tested, and the “activity, negative = active” value was inactive: 0.735%. For Cc1ccc(-n2c(=O)c3ccc(C(=O)NCc4ccccc4Cl)cc3n(CC(=O)Nc3cccc(Cl)c3)c2=O)cc1, the Potency was inconclusive: 8.91 µM [inhibitor, partial curve, poor fit]. With C=CCn1c(O)c(C(C)=Nc2ccc(N(CC)CC)cc2)c(=O)[nH]c1=O the Potency was inconclusive: 8.91 µM [inhibitor, partial curve]. In the case of O=c1c2ccccc2nc(/C=C/c2ccc(O)cc2)n1-c1ccc(O)cc1, the Potency was inconclusive: 11.2 µM [inhibitor, partial curve]. For O=C(Cc1ccc(N(CCCl)CCCl)cc1)NC(Cc1ccc(Cl)cc1)C(=O)O (stereo unspecified), the “activity, negative = active” value was inactive: 1.21%. With COc1ccc(/C=C/c2nc3ccccc3c(=O)n2-c2ccc(C)cc2)cc1O the “activity, negative = active” value was inactive: 1.92%. O=c1c2ccccc2nc(/C=C/c2ccc(O)cc2)n1-c1cccc(O)c1 was tested, and the Potency was inconclusive: 35.5 µM [inhibitor, single point]. In the case of CCOC(=O)C1(c2ccccc2)CCN(CCC(=O)Nc2ccc(OC)cc2)CC1, the “activity, negative = active” value was inactive: 1.64%. O=C1NC(=O)N(CC2CCCO2)C(=O)/C1=C/c1cccs1 (stereo unspecified) was tested, and the “activity, negative = active” value was inactive: -12.7%. In the case of CCOC(=O)C1CCCN(c2ccc([N+](=O)[O-])c3nonc23)C1 (stereo unspecified), the Potency was inconclusive: 3.55 µM [inhibitor, partial curve, poor fit]. In the case of Nc1c(C(=O)Nc2cccc(F)c2)sc2nc(-c3cccs3)ccc12, the Potency was inconclusive: 17.8 µM [inhibitor, partial curve, poor fit]. With COc1cc(/C=C/C(=O)c2c(O)n(CCc3ccccc3)c(=O)[nH]c2=O)ccc1O the Potency was inconclusive: 11.2 µM [inhibitor, partial curve, poor fit]. With NC1=C([N+](=O)[O-])C(c2ccc3c(c2)OCO3)c2c(c3ccccc3oc2=O)O1 (stereo unspecified) the “activity, negative = active” value was inactive: 4.98%. With CCN(CC)c1ccc(N=Cc2c(O)n(Cc3ccco3)c(=O)[nH]c2=O)cc1 the Potency was inconclusive: 17.8 µM [inhibitor, single point]. In the case of CCN(CCCl)Cc1ccccc1Br, the “activity, negative = active” value was inactive: 1.51%. For COc1ccc(OC)c(-n2c(O)c(/C=C3\C(C)=Nc4ccccc43)c(=O)[nH]c2=O)c1, the “activity, negative = active” value was inactive: -7.72%. For CCN(CC)c1nc2ccccc2nc1C(=O)Nc1cccc(C(C)=O)c1, the Potency was inconclusive: 20 µM [inhibitor, single point]. For C[C@@H]1C[C@@H]2O[C@H]2/C=C\C=C\C(=O)Cc2c(Cl)c(O)cc(O)c2C(=O)O1, the Potency was inconclusive: 20 µM [inhibitor, partial curve, poor fit]. For Cc1[nH]c2ccc(OC(F)(F)F)cc2c1CCNCc1ccc(Cl)cc1, the Potency was inconclusive: 35.5 µM [inhibitor, single point]. In the case of CCOC(=O)Nc1ccc(NCc2ccc(F)cc2)nc1N, the Potency was inconclusive: 20 µM [inhibitor, single point] and inconclusive: 31.6 µM [inhibitor, single point]. With Cc1ccc(OCC(=O)N2CCN(CCc3ccncc3)CC2)cc1C the “activity, negative = active” value was inactive: -4.82%. O=C1NC(=O)C(=Cc2ccc(-c3ccc(F)cc3O)o2)C(=O)N1 was tested, and the Potency was inconclusive: 35.5 µM [inhibitor, single point]. With O=C1NC(=O)N(Cc2ccco2)C(=O)/C1=C/C=C/c1ccco1 the Potency was inconclusive: 10 µM [inhibitor, partial curve]. C[C@]12CC[C@@H]3c4ccc(O)c(O)c4CC[C@H]3[C@@H]1CC[C@@H]2O was tested, and the Potency was inconclusive: 35.5 µM [inhibitor, single point]. For CC(C)c1ccc(N2C(=O)NC(=O)/C(=C\c3cnc(-c4ccccc4)nc3)C2=O)cc1, the Potency was inconclusive: 22.4 µM [inhibitor, single point]. CCC1(CC)C(=N)N(C)C(=O)NC1=O was tested, and the Potency was inconclusive: 5.01 µM [inhibitor, single point]. In the case of CCS(=O)(=O)N1N=C(c2cccc(NS(C)(=O)=O)c2)CC1c1ccccc1 (stereo unspecified), the Potency was active: 10 µM. O=c1c2ccccc2nc(/C=C/c2ccc(O)cc2)n1-c1ccccc1O was tested, and the Potency was inconclusive: 28.2 µM [inhibitor, single point]. In the case of Cc1cc(C)n2nc(SC(C)C(=O)N3CCC4(CC3)OCCO4)nc2n1 (stereo unspecified), the “activity, negative = active” value was inactive: -2.54%. With COc1ccc(OC)c(-n2c(O)c(/C=C3\C=Nc4ccccc43)c(=O)[nH]c2=O)c1 the Potency was inconclusive: 35.5 µM [inhibitor, single point]. CC(=O)c1cccc(-c2ccnc3c2CC(C(=O)NCCc2ccccc2)O3)c1 (stereo unspecified) was tested, and the Potency was inconclusive: 1.78 µM [inhibitor, full curve, poor fit]. N#CC1=C(N)Oc2c(c(=O)sc3ccccc23)C1c1ccncc1 (stereo unspecified) was tested, and the Potency was inconclusive: 3.55 µM [inhibitor, full curve]. CCCCn1c(NC(=O)c2ccc(Br)o2)c(C(=O)OCC)c2nc3ccccc3nc21 was tested, and the Potency was inconclusive: 15.8 µM [inhibitor, single point]. CCC12CN3CC(CC)(CN(C1)C3c1c(C)[nH]c(=O)[nH]c1=O)C2=O (stereo unspecified) was tested, and the “activity, negative = active” value was inactive: -2%. Cc1ccc(N2C(=O)NC(=O)/C(=C\c3ccoc3)C2=O)cc1 was tested, and the Potency was inconclusive: 22.4 µM [inhibitor, single point]. In the case of C=C1C(=O)O[C@H]2C[C@@H](C)[C@@H]3C=CC(=O)[C@@]3(C)C[C@H]12, the Potency was inconclusive: 3.16 µM [inhibitor, full curve, poor fit]. In the case of Cc1cccc(N2C(=O)NC(=O)/C(=C\c3cccn3-c3ccc(Cl)cc3)C2=O)c1, the Potency was inconclusive: 22.4 µM [inhibitor, single point]. For Cc1cccc(-n2c(/C=C/c3ccc([N+](=O)[O-])o3)nc3ccccc3c2=O)c1, the Potency was inconclusive: 3.16 µM [inhibitor, partial curve, poor fit]. For Cc1sc(NC(=O)Cn2c(=O)oc3ccccc32)nc1-c1ccc(Cl)cc1, the Potency was inconclusive: 17.8 µM [inhibitor, single point]. In the case of O=c1c2ccccc2nc(/C=C/c2ccccc2F)n1-c1ccccc1O, the “activity, negative = active” value was inactive: -18.8%. For Oc1c(Cl)c(Cl)c(Cl)c(Cl)c1Cl, the Potency was inconclusive: 31.6 µM [inhibitor, partial curve, poor fit]. For CCN(CC)c1ccc(N=Cc2c(O)n(Cc3ccccc3)c(=O)[nH]c2=O)cc1, the Potency was inconclusive: 3.16 µM [inhibitor, full curve, poor fit]. COc1ccc2nc(NC(=O)c3nc(S(=O)(=O)Cc4cccc(C)c4)ncc3Cl)sc2c1 was tested, and the Potency was inconclusive: 11.2 µM [inhibitor, partial curve]. For COCCCNC(=O)c1c(NC(=O)c2ccco2)n(Cc2ccccc2)c2nc3ccccc3nc12, the Potency was inconclusive: 11.2 µM [inhibitor, partial curve]. With CCOc1ccc(N(C(C)C(=O)Nc2cc(Cl)ccc2OC)S(C)(=O)=O)cc1 (stereo unspecified) the Potency was inconclusive: 1.41 µM [inhibitor, partial curve, poor fit]. For O=C1NC(=O)N(Cc2ccccc2)C(=O)/C1=C\N1CCCc2ccccc21, the Potency was inconclusive: 35.5 µM [inhibitor, single point]. CCOC(=O)c1c(/N=C/C2C(=O)NC(=S)NC2=O)sc2c1CCC2 was tested, and the Potency was inconclusive: 15.8 µM [inhibitor, single point]. With O=C1NC(=O)C(=Cc2ccccc2OCCOc2ccc([N+](=O)[O-])cc2)C(=O)N1 the Potency was inconclusive: 11.2 µM [inhibitor, single point]. In the case of COc1cc([N+](=O)[O-])c2nc(C)ccc2c1[N+](=O)[O-], the Potency was inconclusive: 35.5 µM [inhibitor, single point]. In the case of Cc1nc2ccccc2c(=O)n1-c1c(Cl)cccc1Cl, the Potency was inconclusive: 35.5 µM [inhibitor, single point]. In the case of C[N+](C)(C)CC1CCCC(C[N+](C)(C)C)C1=O (stereo unspecified), the “activity, negative = active” value was inactive: -23.6%. With C=C1C(=O)O[C@@H]2C[C@@H](C)[C@@H]3C=CC(=O)[C@@]3(C)[C@@H](OC(=O)CC(=O)O[C@H]3[C@@H]4C(=C)C(=O)O[C@@H]4C[C@@H](C)[C@@H]4C=CC(=O)[C@]43C)[C@H]12 the Potency was inconclusive: 0.631 µM [inhibitor, full curve, poor fit].
